Experimental data: paper PMC3637504
These are yes or no findings as the source states them, for the method shown. Binding seen in cells or lysates may run through a third protein. Some entries that bind do so weakly or less than the wild type. Where a sequence is shown, tags or fusion partners need not be part of it. One block for each molecule: values may come before it.

Chains of the proteins cited; added tags and fusions are not shown.
UniProt Q00722: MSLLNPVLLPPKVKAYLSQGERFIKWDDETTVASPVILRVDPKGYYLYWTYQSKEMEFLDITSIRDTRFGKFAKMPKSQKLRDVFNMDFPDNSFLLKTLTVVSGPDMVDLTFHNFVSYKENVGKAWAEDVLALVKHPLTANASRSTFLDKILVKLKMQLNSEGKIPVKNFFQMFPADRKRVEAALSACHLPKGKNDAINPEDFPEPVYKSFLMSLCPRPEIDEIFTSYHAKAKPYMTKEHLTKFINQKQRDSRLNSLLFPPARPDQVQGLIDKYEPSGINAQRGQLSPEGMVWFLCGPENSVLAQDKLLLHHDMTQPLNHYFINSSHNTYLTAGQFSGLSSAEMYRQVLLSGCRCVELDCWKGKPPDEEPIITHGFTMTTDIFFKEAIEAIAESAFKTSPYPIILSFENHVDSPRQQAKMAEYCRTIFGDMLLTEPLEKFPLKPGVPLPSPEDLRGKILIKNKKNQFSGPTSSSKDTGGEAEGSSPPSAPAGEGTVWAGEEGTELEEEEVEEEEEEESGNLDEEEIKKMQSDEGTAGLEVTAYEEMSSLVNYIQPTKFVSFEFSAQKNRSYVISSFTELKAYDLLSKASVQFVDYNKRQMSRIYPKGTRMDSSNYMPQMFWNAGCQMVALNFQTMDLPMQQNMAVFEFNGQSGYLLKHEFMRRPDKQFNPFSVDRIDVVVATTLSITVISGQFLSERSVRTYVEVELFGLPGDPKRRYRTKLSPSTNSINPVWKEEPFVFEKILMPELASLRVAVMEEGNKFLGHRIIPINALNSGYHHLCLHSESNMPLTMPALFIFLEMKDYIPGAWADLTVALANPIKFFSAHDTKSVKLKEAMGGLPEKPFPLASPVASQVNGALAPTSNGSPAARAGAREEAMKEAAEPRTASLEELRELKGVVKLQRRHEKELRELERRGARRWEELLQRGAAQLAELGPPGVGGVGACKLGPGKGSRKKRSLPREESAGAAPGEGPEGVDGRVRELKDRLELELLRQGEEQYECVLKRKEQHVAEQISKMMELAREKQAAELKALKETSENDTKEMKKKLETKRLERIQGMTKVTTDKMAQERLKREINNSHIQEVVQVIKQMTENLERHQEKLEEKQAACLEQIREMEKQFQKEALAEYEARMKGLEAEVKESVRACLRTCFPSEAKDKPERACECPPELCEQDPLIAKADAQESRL

Key:
Test in all cases: co-IP; HEK293 cells transiently transfected with PLCβ1 or PLCβ2 and tagged PKD1/2/3; HA-PKD1, FLAG-PKD2 and Myc-PKD3 precipitated from lysates with their respective affinity gels; Western blot for PLCβ1/2; the paper calls these data preliminary
[1] = biological target: T1, FLAG-PKD2 (UniProt Q9BZL6)
T1 sequence: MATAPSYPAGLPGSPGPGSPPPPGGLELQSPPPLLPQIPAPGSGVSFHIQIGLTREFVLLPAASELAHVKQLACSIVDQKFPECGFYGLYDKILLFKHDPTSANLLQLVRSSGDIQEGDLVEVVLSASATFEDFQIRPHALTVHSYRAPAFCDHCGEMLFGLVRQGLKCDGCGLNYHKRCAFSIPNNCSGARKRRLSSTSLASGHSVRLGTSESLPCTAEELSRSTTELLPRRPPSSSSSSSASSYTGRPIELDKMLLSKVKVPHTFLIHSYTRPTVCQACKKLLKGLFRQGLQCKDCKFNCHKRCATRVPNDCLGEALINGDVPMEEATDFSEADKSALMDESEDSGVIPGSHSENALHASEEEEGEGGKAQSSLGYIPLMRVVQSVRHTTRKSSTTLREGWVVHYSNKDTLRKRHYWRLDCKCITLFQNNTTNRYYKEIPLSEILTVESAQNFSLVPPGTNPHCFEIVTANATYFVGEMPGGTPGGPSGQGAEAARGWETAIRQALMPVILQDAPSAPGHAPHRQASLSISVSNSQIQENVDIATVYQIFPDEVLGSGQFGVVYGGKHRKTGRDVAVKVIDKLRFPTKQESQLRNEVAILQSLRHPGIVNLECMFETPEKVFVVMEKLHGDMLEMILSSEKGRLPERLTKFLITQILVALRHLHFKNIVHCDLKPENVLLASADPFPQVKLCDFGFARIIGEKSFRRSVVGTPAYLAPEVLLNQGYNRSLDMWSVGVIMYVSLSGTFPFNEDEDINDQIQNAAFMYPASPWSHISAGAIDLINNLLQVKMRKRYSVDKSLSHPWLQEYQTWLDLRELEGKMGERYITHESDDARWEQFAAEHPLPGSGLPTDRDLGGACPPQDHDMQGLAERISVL

[2] = biological target: T2, HA-PKD1 (UniProt Q15139)
T2 sequence: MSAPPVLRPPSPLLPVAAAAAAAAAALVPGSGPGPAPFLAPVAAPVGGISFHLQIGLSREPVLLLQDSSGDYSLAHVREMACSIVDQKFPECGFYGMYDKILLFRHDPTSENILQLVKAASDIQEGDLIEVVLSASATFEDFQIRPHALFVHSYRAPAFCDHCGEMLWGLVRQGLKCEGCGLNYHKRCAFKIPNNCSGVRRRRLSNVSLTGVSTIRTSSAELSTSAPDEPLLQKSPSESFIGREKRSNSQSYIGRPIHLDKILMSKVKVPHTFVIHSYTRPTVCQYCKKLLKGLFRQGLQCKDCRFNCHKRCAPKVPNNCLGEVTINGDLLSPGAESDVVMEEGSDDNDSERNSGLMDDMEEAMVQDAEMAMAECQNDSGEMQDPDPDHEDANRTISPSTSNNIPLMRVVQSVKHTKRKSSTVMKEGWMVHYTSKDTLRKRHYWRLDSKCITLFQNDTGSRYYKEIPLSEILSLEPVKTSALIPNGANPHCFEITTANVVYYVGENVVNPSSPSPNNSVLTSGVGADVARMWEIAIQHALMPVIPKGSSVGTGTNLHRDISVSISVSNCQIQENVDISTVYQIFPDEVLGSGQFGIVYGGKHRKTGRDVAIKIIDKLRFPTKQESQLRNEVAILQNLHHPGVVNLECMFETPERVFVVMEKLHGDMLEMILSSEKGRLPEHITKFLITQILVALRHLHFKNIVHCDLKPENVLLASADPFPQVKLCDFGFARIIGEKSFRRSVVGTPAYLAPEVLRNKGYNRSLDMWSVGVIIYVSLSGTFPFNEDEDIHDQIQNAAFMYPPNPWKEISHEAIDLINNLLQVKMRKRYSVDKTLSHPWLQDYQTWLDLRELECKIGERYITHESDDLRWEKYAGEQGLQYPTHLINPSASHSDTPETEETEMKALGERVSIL

[3] = biological target: T3, Myc-PKD3 (UniProt O94806)
T3 sequence: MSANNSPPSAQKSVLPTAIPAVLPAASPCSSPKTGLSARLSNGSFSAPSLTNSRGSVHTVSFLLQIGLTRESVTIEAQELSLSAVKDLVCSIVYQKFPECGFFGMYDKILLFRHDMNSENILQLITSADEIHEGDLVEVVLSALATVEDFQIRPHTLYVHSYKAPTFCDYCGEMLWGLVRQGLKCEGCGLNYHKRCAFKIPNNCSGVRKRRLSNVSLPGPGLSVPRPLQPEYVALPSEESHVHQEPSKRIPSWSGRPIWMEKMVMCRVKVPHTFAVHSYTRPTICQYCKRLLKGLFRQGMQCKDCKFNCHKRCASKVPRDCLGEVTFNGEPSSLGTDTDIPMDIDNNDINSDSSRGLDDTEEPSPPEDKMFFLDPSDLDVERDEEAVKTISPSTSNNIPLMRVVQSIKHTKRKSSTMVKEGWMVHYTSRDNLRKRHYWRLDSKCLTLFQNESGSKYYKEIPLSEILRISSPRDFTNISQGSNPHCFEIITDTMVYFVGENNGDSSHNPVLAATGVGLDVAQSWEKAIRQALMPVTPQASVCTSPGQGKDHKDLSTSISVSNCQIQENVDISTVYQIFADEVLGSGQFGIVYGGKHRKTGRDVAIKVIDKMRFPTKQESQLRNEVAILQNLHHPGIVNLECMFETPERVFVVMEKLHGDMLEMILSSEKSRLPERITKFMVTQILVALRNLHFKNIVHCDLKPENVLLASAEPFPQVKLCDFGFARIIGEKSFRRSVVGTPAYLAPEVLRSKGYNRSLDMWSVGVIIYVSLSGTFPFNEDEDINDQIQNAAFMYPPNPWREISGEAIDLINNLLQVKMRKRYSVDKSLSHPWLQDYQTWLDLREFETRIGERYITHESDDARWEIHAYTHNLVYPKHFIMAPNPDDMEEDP

binding [1]: binds | binding [2]: binds | binding [3]: binds
Molecule: Phospholipase Cβ2 (PLCβ2) (from UniProt Q00722 1-1185) (enzyme)

binding [1]: no binding | binding [2]: no binding | binding [3]: no binding
B1: Phospholipase Cβ1 (PLCβ1) (enzyme, UniProt Q9NQ66 1-1216)
chain: MAGAQPGVHALQLKPVCVSDSLKKGTKFVKWDDDSTIVTPIILRTDPQGFFFYWTDQNKETELLDLSLVKDARCGRHAKAPKDPKLRELLDVGNIGRLEQRMITVVYGPDLVNISHLNLVAFQEEVAKEWTNEVFSLATNLLAQNMSRDAFLEKAYTKLKLQVTPEGRIPLKNIYRLFSADRKRVETALEACSLPSSRNDSIPQEDFTPEVYRVFLNNLCPRPEIDNIFSEFGAKSKPYLTVDQMMDFINLKQRDPRLNEILYPPLKQEQVQVLIEKYEPNNSLARKGQISVDGFMRYLSGEENGVVSPEKLDLNEDMSQPLSHYFINSSHNTYLTAGQLAGNSSVEMYRQVLLSGCRCVELDCWKGRTAEEEPVITHGFTMTTEISFKEVIEAIAECAFKTSPFPILLSFENHVDSPKQQAKMAEYCRLIFGDALLMEPLEKYPLESGVPLPSPMDLMYKILVKNKKKSHKSSEGSGKKKLSEQASNTYSDSSSMFEPSSPGAGEADTESDDDDDDDDCKKSSMDEGTAGSEAMATEEMSNLVNYIQPVKFESFEISKKRNKSFEMSSFVETKGLEQLTKSPVEFVEYNKMQLSRIYPKGTRVDSSNYMPQLFWNAGCQMVALNFQTMDLAMQINMGMYEYNGKSGYRLKPEFMRRPDKHFDPFTEGIVDGIVANTLSVKIISGQFLSDKKVGTYVEVDMFGLPVDTRRKAFKTKTSQGNAVNPVWEEEPIVFKKVVLPTLACLRIAVYEEGGKFIGHRILPVQAIRPGYHYICLRNERNQPLTLPAVFVYIEVKDYVPDTYADVIEALSNPIRYVNLMEQRAKQLAALTLEDEEEVKKEADPGETPSEAPSEARTTPAENGVNHTTTLTPKPPSQALHSQPAPGSVKAPAKTEDLIQSVLTEVEAQTIEELKQQKSFVKLQKKHYKEMKDLVKRHHKKTTDLIKEHTTKYNEIQNDYLRRRAALEKSAKKDSKKKSEPSSPDHGSSTIEQDLAALDAEMTQKLIDLKDKQQQQLLNLRQEQYYSEKYQKREHIKLLIQKLTDVAEECQNNQLKKLKEICEKEKKELKKKMDKKRQEKITEAKSKDKSQMEEEKTEMIRSYIQEVVQYIKRLEEAQSKRQEKLVEKHKEIRQQILDEKPKLQVELEQEYQDKFKRLPLEILEFVQEAMKGKISEDSNHGSAPLSLSSDPGKVNHKTPSSEELGGDIPGKEFDTPL
